The source gives no read counts; variants with many changes may rest on few reads.

To fix the notation:
B1: OR4K15 (parent)
chain: GUUAACGGUCAUAGGCCAUGGAAACUAGGAGCACCAUUUCGCUGCCAGUGAAGAAAUGAACAAAGAAAAUCUGGGCCAGGCAGGCAUCAAAAGAAAUAGUCUUGCGCUCAACCAGAAAGUCUGUAAUCAUUUUAAGGGUA

The variants in the data set derive from B1. As to the kind of experiment: self-cleavage, relative activity (ratio to wild type); higher = more cleavage; in vitro, sequencing; the parent is a self-cleaving ribozyme.
A30U U72C U97C: the self-cleavage was determined as 0.11.

As to A30G A96G A116G, the self-cleavage stood at 0.42.

For A30G G58A A64G, the self-cleavage was 0.82.

G31A G138A A140G: the self-cleavage was 0.41.

For the variant A30U U37G A60G, the self-cleavage stood at 0.32.

As for A30U G41A U108A A117G, the self-cleavage turned out to be 0.01.

Take G31A A54G A98G U131C: the self-cleavage is 0.27.

In the case of A30G U39C A89U U120A, the self-cleavage worked out at 1.77.

For the variant A30G U49A A63G U97C U100C A111G, the self-cleavage amounted to 0.02.

A30G A91G A116G U124G: the self-cleavage came out at 0.34.

Regarding A30U A47G G119A A135C, the self-cleavage worked out at 0.75.

As to A30G G31A U38C A96G U102A, the self-cleavage was found to be 0.37.

Regarding A30G U72C A116G, the self-cleavage was 0.24.

Turning to A30G A94U A129G, the self-cleavage amounted to 0.61.

Take A30G A86G A96G: the self-cleavage was found to be 1.77.

Consider A30U A63U A69G A111G, for which the self-cleavage amounted to 0.05.

For C32A A62G U100C U122A, the self-cleavage is 2.98.

Consider G31C U70C A92G, for which the self-cleavage stood at 0.33.

On to A30U A52G A68G, for which the self-cleavage is 1.62.

With A30G U100C A114G U132C, the self-cleavage stood at 0.77.

Turning to A30U A62U A118G, the self-cleavage worked out at 0.85.

As for A30G G41A A64U A82G, the self-cleavage was found to be 0.17.

For A30U A63C A64U A68G U87C, the self-cleavage turned out to be 1.16.

On to C32A U37C A92G A116U, for which the self-cleavage was found to be 0.4.

Regarding A30U A96G A140U, the self-cleavage was 1.48.

Turning to A30U C35U A51G C128U, the self-cleavage amounted to 0.32.

Regarding G31A G44A A129G, the self-cleavage turned out to be 1.15.

With C32U A52G U122C, the self-cleavage came to 1.46.

Consider A30G C46A A56G A66U A82U A90G, for which the self-cleavage is 0.22.

Take A30G U49C A86C A129G: the self-cleavage was 0.18.

On to A30U A54G C128A, for which the self-cleavage was 0.89.

C32G A51G U72C: the self-cleavage came out at 0.17.

Turning to C32U A59G C109U, the self-cleavage is 0.52.

As for A30G A82U A90G, the self-cleavage is 0.21.

In the case of A30G A96G A135G, the self-cleavage amounted to 1.82.

A30G U43C A96G A110G: the self-cleavage turned out to be 0.18.

For A30G G41C U102C C105G A114U, the self-cleavage worked out at 0.01.

Regarding A30U A56G U133C, the self-cleavage was 2.11.

Turning to A30G U38C U39A A67C A94G, the self-cleavage turned out to be 1.1.

For the variant C32U A52G A62G U108A, the self-cleavage amounted to 0.01.

On to A30G C32A U57C U122A, for which the self-cleavage came to 1.13.

As to A30G U49C A60G, the self-cleavage is 1.58.

In the case of A30U A91G A116G U124C, the self-cleavage was determined as 0.31.

Regarding A30G A86G U103C, the self-cleavage came to 0.85.

Take A30G U49G U70C: the self-cleavage came out at 0.65.

Regarding A30U A95G A129G U130C, the self-cleavage came out at 1.53.

In the case of A30G U100C A117G, the self-cleavage turned out to be 2.88.

As for A30G A94U A98G U124C, the self-cleavage is 0.47.

As to A30G U70A A92G, the self-cleavage stood at 0.74.

Take A30G U37C U43A A68G U132C: the self-cleavage came to 1.56.

Regarding A30G U39C A91G, the self-cleavage worked out at 1.06.

In the case of G31A U37C A68G A89G, the self-cleavage amounted to 1.27.

Regarding A30G A90G C128U, the self-cleavage was 0.25.

For A30G G50U A94G U132C, the self-cleavage was 1.02.

For A30G C34U U57C U108A A116G A117G, the self-cleavage stood at 0.01.

On to A30G G41A U70C A82U, for which the self-cleavage amounted to 0.37.

With G31C A59G A91G, the self-cleavage turned out to be 1.14.

A30G G50U A114U: the self-cleavage is 0.11.

As to C32U A62C A117G A140U, the self-cleavage came to 1.58.

With C32U A78G G93A, the self-cleavage worked out at 0.44.

As for A30G C101U U103C, the self-cleavage came to 0.15.

Regarding A30U A33U U124C, the self-cleavage was determined as 1.31.

As to A30G A129U U131C, the self-cleavage was determined as 1.01.

Consider G31U U43A U49G G65U A67G U103C, for which the self-cleavage is 1.1.

With A30G C40A A96G, the self-cleavage is 1.2.

For the variant A30G C45U A64G, the self-cleavage was 1.41.

Take A30G A114U G138A: the self-cleavage is 0.09.

As to A30G G84A A92G A111G, the self-cleavage came out at 0.01.

On to A30G G123A G136A, for which the self-cleavage amounted to 1.52.

Take C32A A64G A94G U102C: the self-cleavage is 2.12.

For the variant A30G A69G U103G, the self-cleavage is 0.03.

On to A30G U97A A116G, for which the self-cleavage was 0.35.

A30G U37G U97C U100C: the self-cleavage stood at 2.13.

In the case of A30G U38G C76U, the self-cleavage was found to be 0.17.

Regarding A30G U57C A60G A95G, the self-cleavage was found to be 1.14.

A30G U37A A63G A64U: the self-cleavage was found to be 1.46.

For the variant A30U U108C A114G, the self-cleavage is 0.01.

For A30G U43A A90G U122C, the self-cleavage amounted to 1.04.

Consider A30G C76U U127A, for which the self-cleavage is 0.15.

For A30G U38C A114G, the self-cleavage amounted to 0.27.

With A30U A82G A90G U108C A114G, the self-cleavage was found to be 0.01.

As to A30G A110U A116U U122C, the self-cleavage came out at 0.29.

For the variant A30G U39A A92G A114G, the self-cleavage worked out at 0.53.

A30U A51C A69G: the self-cleavage is 1.17.

Consider A30U A56G A96G, for which the self-cleavage was 1.14.

Regarding A30G U39C G106A C113U, the self-cleavage amounted to 0.

Regarding A30G C45A U108A, the self-cleavage was 0.02.

Turning to A30G U49A A59G A67G A117G, the self-cleavage was 1.52.

As to C32A U49A A78U, the self-cleavage turned out to be 0.44.

Consider A30G A78U A118U U124C, for which the self-cleavage was found to be 0.

Take A30G U43C C81U U131G: the self-cleavage was 0.2.

As for A30G A89G U120C U124C, the self-cleavage stood at 0.29.

As to A30G U38C A51G A54C A64G U100C A114G U131A, the self-cleavage came out at 0.99.

In the case of A30U G53A A60C A67G A78G A110G, the self-cleavage came out at 0.03.

Turning to A30G A86U A98G U108C A140C, the self-cleavage turned out to be 0.01.

Take A30G U38C A54G: the self-cleavage was 1.46.

Consider A30U A52G A118G A126G, for which the self-cleavage amounted to 0.82.

A30G A111G U133A: the self-cleavage was found to be 0.02.

A30G C46U A60G A66G A89U: the self-cleavage was found to be 0.95.

With C32G A78U A82G U97A A98G A118G, the self-cleavage worked out at 0.1.

On to A30G U43G A96G U100C, for which the self-cleavage stood at 2.33.

On to C32U A89U U103C, for which the self-cleavage came out at 0.95.

Regarding A30G C105U A134G, the self-cleavage worked out at 0.15.

Consider A30U C32U U38G A62U U127C, for which the self-cleavage was 0.35.

On to A30G G50A A59G A68U, for which the self-cleavage was determined as 1.45.

Turning to A30U U43C U70G, the self-cleavage is 0.71.

A30G U38C A95G: the self-cleavage was 1.45.

Take G31A C32U A62G A63U A66G A82C: the self-cleavage was 0.09.

On to A30U U38A A60G A110G U120A U122C, for which the self-cleavage was found to be 0.09.

For the variant A30G A90G U133C, the self-cleavage worked out at 1.42.

On to A30U A63G A94G, for which the self-cleavage is 1.42.

For A30U U122C U131C, the self-cleavage was found to be 0.28.

Turning to A30G U38C A117G, the self-cleavage is 0.86.

In the case of A30U A59U A68G U139C, the self-cleavage was 0.5.

As for A30U A52G A111G, the self-cleavage turned out to be 0.03.

As to A30G A86G U87C A94G, the self-cleavage was 0.55.

Take A30G A135G U139A: the self-cleavage stood at 1.56.

In the case of A30U C112U A118G, the self-cleavage was found to be 0.

On to A30G A69G U70C A82G U102A A117G, for which the self-cleavage was determined as 0.09.

Regarding A30G A117G U127C, the self-cleavage amounted to 0.73.

With G31A A33U U43C A55G A60G A62G A91G, the self-cleavage was 0.59.

Consider A30G U43C A96G, for which the self-cleavage is 1.14.

As for C32U A47G A89U, the self-cleavage came out at 2.31.

For the variant A30G C35U A55G U103A A129G, the self-cleavage is 0.09.

As for A30U A64G C88U U102C, the self-cleavage came out at 1.22.

For C32A A67G A118G, the self-cleavage came out at 1.43.

For G31A A47G A94G, the self-cleavage worked out at 0.86.

In the case of A30G A91G A118G, the self-cleavage turned out to be 0.33.

Take A30U A86U U127C: the self-cleavage came out at 1.62.

For the variant A30U A62G A64U A66C A67G A118G, the self-cleavage amounted to 0.44.

Take A30U A36G U38C: the self-cleavage was determined as 2.1.

As to G31A U43A A66G, the self-cleavage was determined as 0.86.

Turning to A30U U108C A118G, the self-cleavage is 0.01.

In the case of A30G U43C A63G A69G U72C A82G A118G, the self-cleavage came to 0.18.

As to A30G C105U G106A U108C, the self-cleavage was determined as 0.02.

On to A30G U37C C85A, for which the self-cleavage worked out at 1.31.

Regarding A30G A82G U103A U122C, the self-cleavage was 0.08.

With A30G U72A U103C U139C, the self-cleavage was 0.19.

Take C32U A60G A91G U127C: the self-cleavage is 0.64.

For A30G G31C U38A U49A U70C U120A, the self-cleavage was determined as 0.52.

Consider A30G U87C A125U, for which the self-cleavage was 1.34.

With G31A U37C A59U A63G G93A, the self-cleavage turned out to be 1.27.

For the variant A30G A96G A98G U103C U122C, the self-cleavage turned out to be 0.03.

With G31A A33C U57C U103C A134G G137A, the self-cleavage is 0.15.

On to A30G U43C A51G A78U A118G, for which the self-cleavage amounted to 0.24.

A30G U72A C76U: the self-cleavage came to 0.41.

As for A30G U38A A54G A95G C121U, the self-cleavage was found to be 2.34.

In the case of G31A A36G U49G G50U A118G A125G, the self-cleavage was 0.19.

With A30G A96G A126C, the self-cleavage was found to be 0.58.

Consider A30G U37C A47G, for which the self-cleavage was determined as 1.36.

Consider G31A U37C A60G, for which the self-cleavage worked out at 1.3.

Take A30G U39C U122C: the self-cleavage is 1.14.

As to A30G U39C A110G, the self-cleavage worked out at 0.11.

With A30G U108C U127C, the self-cleavage amounted to 0.

For the variant A30U A91G U131C, the self-cleavage came to 1.07.

For A30G C105U A129G, the self-cleavage is 0.13.

Turning to A30G U87C A96U A118G, the self-cleavage was determined as 0.38.

Turning to A30G U97A A114G, the self-cleavage was 0.74.

As to A30U A33G A55G U102C U132C, the self-cleavage amounted to 1.87.

Regarding A30G G115U U127C, the self-cleavage was found to be 0.02.

As for A30G U39A A116G A117G, the self-cleavage amounted to 1.14.

Take A30G U87G A89U: the self-cleavage amounted to 1.11.

Take A30G A69G A86G A98C A114C: the self-cleavage was found to be 0.07.

In the case of A30U G58A A69G U100C A116U, the self-cleavage was 0.73.

Regarding A30U U70C A90G, the self-cleavage amounted to 1.13.

Take A30U A33G U37C: the self-cleavage worked out at 1.02.

In the case of A30G C61U U122C, the self-cleavage came to 1.49.
